Screen size: about 410,000 compounds; about 7,200 (1.8%) were called active. The shares of active, inactive and inconclusive entries below differ from those in the screen. Calls come from the whole dose curve; as a rule, active = well fitted activation curve with a large enough effect; inconclusive = small, poorly fitted or top-dose-only effect, or another doubt; inactive = no such curve, though single readings can be large or run the other way. No potency is given beside an inconclusive call; the fits are too rough.
Assay: qHTS of TDP-43 Inhibitors; note: nearly all actives have a fitted effect of over 50% in size; for growth rescue (activation): % of control where 0% means no effect
Settings: TDP-43 expressing yeast growth rescue, BacTiter-Glo, 24 h; growth rescue (activation): at 46.1 µM (top of the series) unless noted
Outline: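 Luminescence from BacTiter-Glo reports growth of TDP-43-expressing yeast after 24 hr at 30 deg C with compound. Cells were raffinose-pregrown to mid-log, then seeded in galactose medium at OD600=0.02.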
Potency is the fitted concentration of half-maximal effect; tags give direction and shape of the fitted curve.

Q: For `Cc1cc(N2CCCCC2)nc2ccc(NC(=O)/C=C/c3ccc(OCCC(C)C)cc3)cc12`, which Potency is on record?
A: inconclusive [activator, partial curve]

Q: With `COc1ccc(NC(=O)NCCn2nnc3cc(S(=O)(=O)N(C)C)ccc32)cc1` as the compound, how does the “growth rescue (activation)” value read?
A: inactive: 8%

Q: With `O=C(CCc1ccccc1)NNC(=O)c1cc(Cl)ccc1O` as the compound, how does the growth rescue (activation) read?
A: inactive: -11% [at 1.82 µM]

Q: For `CCCCN(CC)C(=O)C1CCCN(c2ncnc3c2nc2n3CCCCC2)C1` (centres undefined), which Potency is on record?
A: inconclusive [activator, single point]

Q: With `CCC1CCc2c(sc(NC(C)=O)c2C#N)C1` (centres undefined) as the compound, how does the Potency read?
A: inconclusive [activator, full curve]

Q: Which Potency does the source give for `COc1cccc(NC(=O)Nc2ccccc2SC)c1` here?
A: active: 20 µM

Q: For `O=C(C1CCN(S(=O)(=O)Cc2ccccc2)CC1)N1CCCc2ccccc21`, which Potency is on record?
A: inconclusive [activator, single point]

Q: Which “growth rescue (activation)” value does the source give for `Cc1sc2nc(SCC(=O)NCc3cccs3)[nH]c(=O)c2c1C` here?
A: inactive: 17.7%

Q: Which Potency does the source give for `O=C(c1ccncc1)N1N=C(c2ccc(Br)cc2)CC1c1ccccc1O` (centres undefined) here?
A: inconclusive [activator, partial curve]

Q: For `COc1ccc(CCNS(=O)(=O)c2ccc3c(c2)CCCC3)cc1OC`, which Potency is on record?
A: inconclusive [activator, single point]

Q: For `Cc1ccccc1Cc1c(C)nc2ncnn2c1C`, which Potency is on record?
A: inconclusive [activator, partial curve]

Q: For `Cc1cc(C)n(CC(=O)N/N=C/c2cc([N+](=O)[O-])ccc2O)n1`, which Potency is on record?
A: inconclusive [activator, partial curve]

Q: For `CCSc1ncccc1-c1nc2ccccc2[nH]1`, which Potency is on record?
A: inconclusive [activator, single point]

Q: Which Potency does the source give for `COc1ccc(NC(=O)CSc2nc(-c3cccs3)cc(C(F)(F)F)n2)c(OC)c1` here?
A: inconclusive [activator, partial curve]

Q: Which Potency does the source give for `Cc1cc(C(=O)OC(C)C(=O)NC2CCCCC2C)c(C)o1` (centres undefined) here?
A: inconclusive [activator, partial curve]

Q: With `COCCCNC(=O)c1ccc2c(c1)nc1n2CCCCC1` as the compound, how does the “growth rescue (activation)” value read?
A: inactive: -7.48%

Q: With `Cc1ccc(F)cc1C(=O)N1CCCC(c2cc(C(=O)Nc3ccccc3Cl)no2)C1` (centres undefined) as the compound, how does the Potency read?
A: active: 35.5 µM

Q: With `COc1ccc(OC)c(C(=O)c2coc3cc(Br)c(O)c(Br)c23)c1` as the compound, how does the Potency read?
A: inconclusive [activator, full curve]

Q: Which “growth rescue (activation)” value does the source give for `CC(C)Oc1ccc(CNC(=O)C2CCN(C(=O)N3CC(C)Oc4ccccc43)CC2)cc1` (centres undefined) here?
A: inactive: 2.74%

Q: With `CC(C)NC(=O)C1(C)CCN1C(=O)Cc1ccc(-c2ccccc2)cc1` (centres undefined) as the compound, how does the Potency read?
A: inconclusive [activator, partial curve]

Q: With `N/C(=N\OC(=O)c1cc([N+](=O)[O-])ccc1Cl)c1ccccn1` as the compound, how does the Potency read?
A: inconclusive [activator, single point]

Q: Which Potency does the source give for `N/C(=N\OC(=O)c1cccs1)c1cccc([N+](=O)[O-])c1` here?
A: inconclusive [activator, single point]

Q: With `Cc1cccc(C2NC(=O)c3ccccc3O2)c1` (centres undefined) as the compound, how does the Potency read?
A: active: 14.1 µM

Q: For `FC(F)(F)c1cc(-c2cccc(Br)c2)nc2ncnn12`, which Potency is on record?
A: inconclusive [activator, single point]

Q: For `C=CCC[C@@H](CCCCC)OC(=O)/C=C/[C@H](O)[C@@H](O)C[C@@H](O)CC=C`, which Potency is on record?
A: inconclusive [activator, partial curve, poor fit]

Q: With `CCOC(=O)c1ccc(NC(=O)c2nc[nH]c2C(=O)NCCCNC(=O)c2[nH]cnc2C(=O)Nc2ccc(C(=O)OCC)cc2)cc1` as the compound, how does the Potency read?
A: inconclusive [activator, full curve, poor fit]

Q: For `COc1ccc2[nH]c3nc(SCC(=O)Nc4ccc5c(c4)OCO5)nnc3c2c1`, which “growth rescue (activation)” value is on record?
A: inactive: -18.2%

Q: With `CS/C(=C\C(=O)c1ccco1)Nc1ccccc1Cl` as the compound, how does the Potency read?
A: inconclusive [activator, single point]

Q: For `CCOc1ccc(NC2=C(OC)C(=O)c3ccccc3C2=O)cc1`, which Potency is on record?
A: active: 17.8 µM

Q: With `Cc1ccccc1Oc1cc(-n2ncc(Cl)c(Cl)c2=O)ncn1` as the compound, how does the growth rescue (activation) read?
A: inconclusive: -66.7% [activator]

Q: For `CCOC(=O)c1cnc2ccc(OCC)cc2c1N1CCN(c2ccccc2F)CC1`, which Potency is on record?
A: active: 15.8 µM

Q: With `CC(=O)Nc1ccc(-c2nc3ccccc3o2)cc1` as the compound, how does the Potency read?
A: inconclusive [activator, partial curve]

Q: For `COc1cc(OC)cc(OC(=O)C2CCN(C(=O)c3ccc(Cl)cc3)CC2)c1`, which Potency is on record?
A: inconclusive [activator, single point]

Q: Which Potency does the source give for `Cc1nc(-c2cccc(C(F)(F)F)c2)sc1C(=O)O` here?
A: inconclusive [activator, partial curve]

Q: Which Potency does the source give for `CCOc1ccc(-c2nnn(CC(=O)N3CCCC(C)C3)n2)cc1` (centres undefined) here?
A: inconclusive [activator, single point]

Q: Which Potency does the source give for `O=C(COc1ccc2ccc(=O)oc2c1)NC1CCCCC1` here?
A: inconclusive [activator, single point]

Q: For `CC(=O)c1ccc(Nc2nc(C(N)c3ccccc3)cs2)cc1` (centres undefined), which Potency is on record?
A: inconclusive [activator, single point]

Q: Which Potency does the source give for `Clc1ccccc1CO/N=C1\CCCc2nonc21` here?
A: inconclusive [activator, full curve]

Q: Which Potency does the source give for `S=c1[nH]c(-c2ccc(Cl)cc2)cs1` here?
A: inconclusive [activator, partial curve]

Q: Which Potency does the source give for `Cc1c(Cl)cccc1NC(=S)NC1CCCC1` here?
A: active: 20 µM

Q: With `O=C(N/N=C/C(Br)=C\c1ccccc1)c1ccc2nc[nH]c2c1` as the compound, how does the Potency read?
A: inconclusive [activator, partial curve]

Q: For `Cc1cc(Nc2ccc(Br)cc2)nc(-c2ccccc2O)n1`, which Potency is on record?
A: inconclusive [activator, partial curve]

Q: Which Potency does the source give for `CC(OC(=O)Cn1[nH]c(=O)c2ccccc2c1=O)C(=O)Nc1ccc(Cl)cn1` (centres undefined) here?
A: inconclusive [activator, partial curve]

Q: Which “growth rescue (activation)” value does the source give for `N#Cc1ccc(N2CCCC2C(=O)O)c([N+](=O)[O-])c1` (centres undefined) here?
A: inactive: 2.66%

Q: With `CCOC(=O)C1CCCN(C2CC(=O)N(c3ccc(C)c(C)c3)C2=O)C1` (centres undefined) as the compound, how does the Potency read?
A: inconclusive [activator, single point]

Q: With `CCc1ccc(OCCCC(=O)NCc2ccccc2)cc1` as the compound, how does the Potency read?
A: inconclusive [activator, partial curve]

Q: With `CCCCOc1ccccc1NC(=O)CC1Sc2ccccc2NC1=O` (centres undefined) as the compound, how does the “growth rescue (activation)” value read?
A: inactive: -13.3%

Q: Which “growth rescue (activation)” value does the source give for `CC(=O)N1CCCc2cc(S(=O)(=O)N3CCC(C(=O)N(C)C4CCCCC4)CC3)ccc21` here?
A: inactive: 19.7%

Q: With `O=C(CSc1ncn(-c2ccccc2)n1)Nc1ccc2c(c1)OCO2` as the compound, how does the Potency read?
A: inconclusive [activator, single point]

Q: With `CCC1S/C(=C(\C#N)C(=O)NCc2ccco2)N(c2ccc(F)cc2)C1=O` (centres undefined) as the compound, how does the “growth rescue (activation)” value read?
A: inactive: 0.254%

Q: With `CC(=O)NC(c1ccc(F)c(F)c1)c1nc(-c2ccccc2)cs1` (centres undefined) as the compound, how does the Potency read?
A: inconclusive [activator, single point]

Q: With `O=C1[C@H](Cc2ccccc2)NCCCC[C@H](c2ccc(Cl)cc2)N1Cc1ccc(Cl)cc1` as the compound, how does the Potency read?
A: inconclusive [activator, single point]

Q: With `COC(=O)c1c(-c2ccc(OC)cc2)sc2ccc(N3CCOCC3)cc12` as the compound, how does the Potency read?
A: inconclusive [activator, partial curve]

Q: With `Cc1cc2ccccc2n1CCNC(=O)COc1ccc2ccccc2c1` as the compound, how does the Potency read?
A: active: 35.5 µM

Q: Which Potency does the source give for `COc1cc(C(=O)OCc2cc(=O)n3ccsc3n2)ccc1OC(C)C` here?
A: inconclusive [activator, single point]

Q: With `CC(C)N(Cc1nnc(-c2ccccc2Cl)o1)C(=O)COc1cccc(Cl)c1` as the compound, how does the “growth rescue (activation)” value read?
A: inactive: 3.56%

Q: With `O=C(Nc1cccc(F)c1)N1CCc2nc(NCc3cccc(Oc4ccccc4)c3)ncc2C1` as the compound, how does the Potency read?
A: active: 15.8 µM

Q: For `Cc1ccc(NC(=O)CN(C)C(=O)C(Sc2ccccc2)c2ccccc2)cc1` (centres undefined), which Potency is on record?
A: inconclusive [activator, single point]

Q: For `Cc1ccccc1Cn1nnc2c(=O)[nH]c(C3CCCN(C(=O)c4ccc(C(C)(C)C)cc4)C3)nc21` (centres undefined), which Potency is on record?
A: inconclusive [activator, partial curve, poor fit]

Q: For `Cc1cc(NS(=O)(=O)c2ccc(NC(=O)C(C)Oc3ccc(C(C)C)cc3)cc2)no1` (centres undefined), which Potency is on record?
A: inconclusive [activator, single point]

Q: For `Clc1ccc(SCCCCn2cncn2)cc1`, which Potency is on record?
A: inconclusive [activator, single point]

Q: Which Potency does the source give for `CCCCCC(=O)Nc1nc(C)c(-c2csc(Nc3ccc(Cl)cc3)n2)s1` here?
A: inconclusive [activator, single point]

Q: For `Cc1nnc2c3ccccc3nc(N3CCN(c4ccccc4)CC3)n12`, which Potency is on record?
A: inconclusive [activator, partial curve]

Q: Which Potency does the source give for `CCCCCCCC(=O)N/N=C/c1ccc([N+](=O)[O-])o1` here?
A: active: 20 µM

Q: For `CN(C)C(=O)CCc1ccc2c3c([nH]c2c1)[C@]1(CCC2CCCC2)[C@@H](C(=O)N2CCOCC2)C[C@H](CC(=O)NCCC2=CCCCC2)C(=O)N1CC3`, which “growth rescue (activation)” value is on record?
A: inactive: 21.1%

Q: With `COc1cccc(N2CCN(c3cnc4ccccc4n3)CC2)c1` as the compound, how does the Potency read?
A: active: 35.5 µM

Q: With `COc1ccc(OC)c(CCNC(=O)c2cnn(-c3ccccc3)c2-n2cccc2)c1` as the compound, how does the growth rescue (activation) read?
A: inconclusive: 49.9% [activator]

Q: Which Potency does the source give for `COc1cccc(C(=O)N2CCN(C(=O)COc3ccc4ccccc4c3)CC2)c1` here?
A: inconclusive [activator, partial curve]

Q: Which Potency does the source give for `CCN(CC(=O)Nc1cc(Cl)ccc1C)C(=O)C1CCN(c2ncnc3sc(C)c(C)c23)CC1` here?
A: inconclusive [activator, single point]
